# “And” between values parts separate entries of the source, which are not always exact repeats. Equal entries are not always repeated. In all, about 2,900 compounds were measured (“IRF Lucia reporter activity, fold change vs agonist alone”: median about 0.9, highest 2% from about 2.8 on). Some of the results follow.
# Experiments:
# RAW-Dual [1] = test: IRF Lucia reporter activity, fold change vs agonist alone; higher = enhanced IRF activity; conditions: agonist: MPLA (TLR4) […]
# Outline: (§1)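 Cytotoxic wells were those whose IncuCyte confluency was below 70% of agonist controls in both mask sets. The cells were RAW-Dual macrophages at 50,000 cells/well in DMEM on 384-well plates, dosed with 50 nL of library stock by pin tool, stimulated with a PRR agonist 1 h later, and kept at 37 °C, 5% CO2 for 20 hours. IRF and NF-κB reporter activity, as fold change over agonist-alone wells, came from supernatant read by QuantiLuc luminescence and QuantiBlue absorbance, respectively.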
# RAW-Dual [2] = test: IRF Lucia reporter activity, fold change vs agonist alone; cytotoxicity flag (confluency mask): not cytotoxic; higher = enhanced IRF activity
# Outline: as §1
# RAW-Dual [3] = test: IRF Lucia reporter activity, fold change vs agonist alone; cytotoxicity flag (confluency mask): cytotoxic (confluency <70% of control); higher = enhanced IRF activity
# Outline: as §1
# [4] = library stock concentration (final ~1000-fold dilution): 10 mM, cytotoxicity flag (confluency mask): not cytotoxic
# [5] = agonist: 3'3'-cGAMP (STING) 10 ug/mL
# [6] = library stock concentration (final ~1000-fold dilution): 10 mM, cytotoxicity flag (confluency mask): cytotoxic (confluency <70% of control)
smiles,measurement,setting,value
Cl.Cl.Fc1cc(-c2cccc3ncc(-c4cnn(C5CCNCC5)c4)nc23)cc(F)c1CN1CCOCC1,IRF Lucia reporter activity,RAW-Dual [1]; [4],1.15
Cc1cn(-c2cc(NC(=O)c3ccc(C)c(Nc4nccc(-c5cccnc5)n4)c3)cc(C(F)(F)F)c2)cn1.Cl (library stock concentration (final ~1000-fold dilution): 10 mM),IRF Lucia reporter activity,RAW-Dual [2]; [5],0.448
same,IRF Lucia reporter activity,RAW-Dual [2]; agonist: LPS (TLR4) 0.1 ug/mL,1.55
Cc1cn(-c2cc(NC(=O)c3ccc(C)c(Nc4nccc(-c5cccnc5)n4)c3)cc(C(F)(F)F)c2)cn1.Cl,IRF Lucia reporter activity,RAW-Dual [1]; [4],2.17
CCN(CC)CCCC(C)Nc1c2ccc(Cl)cc2nc2ccc(OC)cc12.Cl.Cl (configuration not stated) (library stock concentration (final ~1000-fold dilution): 10 mM),IRF Lucia reporter activity,RAW-Dual [3]; [5],0.643
same,IRF Lucia reporter activity,RAW-Dual [3]; agonist: LPS (TLR4) 0.1 ug/mL,0.0599
CCN(CC)CCCC(C)Nc1c2ccc(Cl)cc2nc2ccc(OC)cc12.Cl.Cl (configuration not stated),IRF Lucia reporter activity,RAW-Dual [1]; [6],0.84
COCCNC(=O)Nc1ccc2nc(-c3cccs3)c(-c3cccs3)nc2c1 (library stock concentration (final ~1000-fold dilution): 10 mM),IRF Lucia reporter activity,RAW-Dual [3]; [5],0.0185
same,IRF Lucia reporter activity,RAW-Dual [3]; agonist: LPS (TLR4) 0.1 ug/mL,0.19
Cc1cc(C(=O)Nc2nc3cccc(Cl)c3n2C2CCCCN(C(=O)/C=C/CN(C)C)C2)ccn1 (configuration not stated) (library stock concentration (final ~1000-fold dilution): 10 mM),IRF Lucia reporter activity,RAW-Dual [2]; [5],0.15
same,IRF Lucia reporter activity,RAW-Dual [2]; agonist: LPS (TLR4) 0.1 ug/mL,0.668
CC(C)c1ccccc1Cc1cc(C(=O)Nc2ccc(S(=O)(=O)c3ccccc3C(C)(C)C)cc2)c(O)c(O)c1O,IRF Lucia reporter activity,RAW-Dual [1]; [4],1.03
CC(C)c1ccccc1Cc1cc(C(=O)Nc2ccc(S(=O)(=O)c3ccccc3C(C)(C)C)cc2)c(O)c(O)c1O (library stock concentration (final ~1000-fold dilution): 10 mM),IRF Lucia reporter activity,RAW-Dual [2]; [5],0.0931
same,IRF Lucia reporter activity,RAW-Dual [2]; agonist: LPS (TLR4) 0.1 ug/mL,0.897
Clc1ccc2c(c1)CCc1cccnc1C2=C1CCNCC1 (library stock concentration (final ~1000-fold dilution): 10 mM),IRF Lucia reporter activity,RAW-Dual [3]; [5],0.432
same,IRF Lucia reporter activity,RAW-Dual [3]; agonist: LPS (TLR4) 0.1 ug/mL,0.436
Clc1ccc2c(c1)CCc1cccnc1C2=C1CCNCC1,IRF Lucia reporter activity,RAW-Dual [1]; [6],1.29
Cl.O=C(O)/C=C/c1ccc(Cn2ccnc2)cc1,IRF Lucia reporter activity,RAW-Dual [1]; [4],0.942
Cl.O=C(O)/C=C/c1ccc(Cn2ccnc2)cc1 (library stock concentration (final ~1000-fold dilution): 10 mM),IRF Lucia reporter activity,RAW-Dual [2]; [5],1.06
same,IRF Lucia reporter activity,RAW-Dual [2]; agonist: LPS (TLR4) 0.1 ug/mL,0.861
O=C(Nc1c[nH]nc1-c1nc2cc(CN3CCOCC3)ccc2[nH]1)NC1CC1 (library stock concentration (final ~1000-fold dilution): 10 mM),IRF Lucia reporter activity,RAW-Dual [3]; [5],0.0103
same,IRF Lucia reporter activity,RAW-Dual [3]; agonist: LPS (TLR4) 0.1 ug/mL,0.017
O=C(Nc1c[nH]nc1-c1nc2cc(CN3CCOCC3)ccc2[nH]1)NC1CC1,IRF Lucia reporter activity,RAW-Dual [1]; [6],0.0171
O=C(NC1(c2ccccc2)CC1)c1c(CN2CCC(N3CCCCC3)CC2)c(-c2cccc(C(F)(F)F)c2)nc2cc(Br)ccc12 (library stock concentration (final ~1000-fold dilution): 10 mM),IRF Lucia reporter activity,RAW-Dual [3]; [5],0.512
same,IRF Lucia reporter activity,RAW-Dual [3]; agonist: LPS (TLR4) 0.1 ug/mL,1.83
Nc1nc(NCCNc2ncc(-n3ccnc3)c(-c3ccc(Cl)cc3Cl)n2)ccc1[N+](=O)[O-] (library stock concentration (final ~1000-fold dilution): 10 mM),IRF Lucia reporter activity,RAW-Dual [2]; [5],0.703
same,IRF Lucia reporter activity,RAW-Dual [2]; agonist: LPS (TLR4) 0.1 ug/mL,0.0304
Nc1nc(NCCNc2ncc(-n3ccnc3)c(-c3ccc(Cl)cc3Cl)n2)ccc1[N+](=O)[O-],IRF Lucia reporter activity,RAW-Dual [1]; [4],0.378
CCN(CC)c1ccc2cc(C(=O)O)c(=O)oc2c1,IRF Lucia reporter activity,RAW-Dual [1]; [4],0.961
CCN(CC)c1ccc2cc(C(=O)O)c(=O)oc2c1 (library stock concentration (final ~1000-fold dilution): 10 mM),IRF Lucia reporter activity,RAW-Dual [2]; [5],0.932
same,IRF Lucia reporter activity,RAW-Dual [2]; agonist: LPS (TLR4) 0.1 ug/mL,1.09
CCS(=O)(=O)N1CC(CC#N)(n2cc(-c3ncnc4[nH]ccc34)cn2)C1 (library stock concentration (final ~1000-fold dilution): 10 mM),IRF Lucia reporter activity,RAW-Dual [2]; [5],0.398 and 0.467
same,IRF Lucia reporter activity,RAW-Dual [2]; agonist: LPS (TLR4) 0.1 ug/mL,0.417 and 0.973
CCn1cc(C(=O)O)c(=O)c2cc(F)c(N3CCN(C)CC3)cc21.CS(=O)(=O)O.O.O (library stock concentration (final ~1000-fold dilution): 10 mM),IRF Lucia reporter activity,RAW-Dual [2]; [5],0.849
same,IRF Lucia reporter activity,RAW-Dual [2]; agonist: LPS (TLR4) 0.1 ug/mL,0.562
CCn1cc(C(=O)O)c(=O)c2cc(F)c(N3CCN(C)CC3)cc21.CS(=O)(=O)O.O.O,IRF Lucia reporter activity,RAW-Dual [1]; [4],0.856
CSC(=N)N,IRF Lucia reporter activity,"RAW-Dual [1]; library stock concentration (final ~1000-fold dilution): 10 mM water, cytotoxicity flag (confluency mask): not cytotoxic",1.35
CSC(=N)N (library stock concentration (final ~1000-fold dilution): 10 mM water),IRF Lucia reporter activity,RAW-Dual [2]; [5],1.14
same,IRF Lucia reporter activity,RAW-Dual [2]; agonist: LPS (TLR4) 0.1 ug/mL,0.899
Nc1nccc(Oc2ccc(NC(=O)c3c[nH]cc(-c4ccc(F)cc4)c3=O)cc2F)c1Cl (library stock concentration (final ~1000-fold dilution): 10 mM),IRF Lucia reporter activity,RAW-Dual [2]; [5],0.225
same,IRF Lucia reporter activity,RAW-Dual [2]; agonist: LPS (TLR4) 0.1 ug/mL,0.182
Nc1nccc(Oc2ccc(NC(=O)c3c[nH]cc(-c4ccc(F)cc4)c3=O)cc2F)c1Cl,IRF Lucia reporter activity,RAW-Dual [1]; [4],0.395
